Literature values in PubChem BioAssay AID1259410 (Chemical Carcinogenesis Research Information System (CCRIS), 2018).
The source gives many values for each of these; only a part stands here.

Test system: rodent tumor promotion studies, tumor incidence
Assay: CCRIS tumor promotion studies
Conditions: Route [Carcinogen]: DERMAL, Route [Promoter]: DERMAL, Species: MOUSE
Excerpt: The CCRIS database contains chemical records with carcinogenicity, mutagenicity, tumor promotion, and tumor inhibition test results. It was developed by the National Cancer Institute (NCI). Data are derived from studies cited in primary journals, current awareness tools, NCI reports, and other sources. Test results have been reviewed by experts in carcinogenesis and mutagenesis.
CCRIS provides historical information from the years 1985 - 2011. It is no longer updated.
This is an archive assay for CCRIS tumor promotion studies.

Compound: CCCCCCCCCCCCCC(=O)O[C@@H]1[C@@H](C)[C@@]2(O)[C@@H](C=C(CO)C[C@]3(O)C(=O)C(C)=C[C@@H]23)[C@@H]2C(C)(C)[C@]12OC(C)=O
- outcome (Carcinogen: (1AS,2S,3R,13CR)-1A,2,3,13C-TETRAHYDROBENZ[C]OXIRENO[5,6]BENZ[1,2-H]ACRIDINE-2,3 -DIOL, 93780-95-1, Carcinogen: (1AS,2S,3R,13CR)-1A,2,3,13C-TETRAHYDROBENZ[C]OXIRENO[5,6]BENZ[1,2-H]ACRIDINE-2,3 -DIOL, 93780-95-1, Doses [Carcinogen]: 0, 50, 200 NMOL IN 0.2 ML ACETONE ONCE (STUDY DURATION: 150 D), Doses [Carcinogen]: 0, 50, 200 NMOL IN 0.2 ML ACETONE ONCE (STUDY DURATION: 150 D), Doses [Promoter]: 0, 16 NMOL IN 0.2 ML ACETONE 2/WK FOR 20 WK BEGINNING 10 D POST CARCINOGEN DOSE (STUDY DURATION: 150 D), Doses [Promoter]: 0, 16 NMOL IN 0.2 ML ACETONE 2/WK FOR 20 WK BEGINNING 10 D POST CARCINOGEN DOSE (STUDY DURATION: 150 D), Strain/Sex: CD-1/FEMALE): skin: papilloma
- outcome (Carcinogen: (1AS,13CR)-1A,2,3,13C-TETRAHYDROBENZ[C]OXIRENO[5,6]BENZ[1,2-H]ACRIDINE, 93781-05-6, Carcinogen: (1AS,13CR)-1A,2,3,13C-TETRAHYDROBENZ[C]OXIRENO[5,6]BENZ[1,2-H]ACRIDINE, 93781-05-6, Doses [Carcinogen]: 0, 50, 200 NMOL IN 0.2 ML ACETONE ONCE (STUDY DURATION: 150 D), Doses [Carcinogen]: 0, 50, 200 NMOL IN 0.2 ML ACETONE ONCE (STUDY DURATION: 150 D), Doses [Promoter]: 0, 16 NMOL IN 0.2 ML ACETONE 2/WK FOR 20 WK BEGINNING 10 D POST CARCINOGEN DOSE (STUDY DURATION: 150 D), Doses [Promoter]: 0, 16 NMOL IN 0.2 ML ACETONE 2/WK FOR 20 WK BEGINNING 10 D POST CARCINOGEN DOSE (STUDY DURATION: 150 D), Strain/Sex: CD-1/FEMALE): skin: papilloma
- outcome (Carcinogen: (3R,4R)-3,4-DIHYDRO-DIBENZ[C,H]ACRIDINE-3,4-DIOL, 93780-91-7, Carcinogen: (3R,4R)-3,4-DIHYDRO-DIBENZ[C,H]ACRIDINE-3,4-DIOL, 93780-91-7, Doses [Carcinogen]: 0, 50, 200 NMOL IN 0.2 ML ACETONE ONCE (STUDY DURATION: 150 D), Doses [Carcinogen]: 0, 50, 200 NMOL IN 0.2 ML ACETONE ONCE (STUDY DURATION: 150 D), Doses [Promoter]: 0, 16 NMOL IN 0.2 ML ACETONE 2/WK FOR 20 WK BEGINNING 10 D POST CARCINOGEN DOSE (STUDY DURATION: 150 D), Doses [Promoter]: 0, 16 NMOL IN 0.2 ML ACETONE 2/WK FOR 20 WK BEGINNING 10 D POST CARCINOGEN DOSE (STUDY DURATION: 150 D), Strain/Sex: CD-1/FEMALE): skin: papilloma
- outcome (Carcinogen: ((+/-)-(E)-4-METHYL-2[(E)-HYDROXYIMINO]-5-NITRO-6-METHOXY-3-HEXENAMIDE), Doses [Carcinogen]: 390 NMOL, Doses [Promoter]: 0, 1.7 NMOL FOR 20 WK (STUDY DURATION:20 WK), Doses [Promoter]: 0, 1.7 NMOL FOR 20 WK (STUDY DURATION:20 WK), Strain/Sex: SENCAR): skin: papilloma
- outcome (Carcinogen: (+)-(11S,12S)-DIBENZO[A,1]PYRENE DIHYDRODIOL, 189880-64-6, Carcinogen: (+)-(11S,12S)-DIBENZO[A,1]PYRENE DIHYDRODIOL, 189880-64-6, Doses [Carcinogen]: 20, 40 NMOL IN 100 µL ACETONE ONCE, Doses [Carcinogen]: 20, 40 NMOL IN 100 µL ACETONE ONCE, Doses [Promoter]: 10 NMOL IN 100 µL ACETONE 2/WK FOR 24 WK BEGINNING 1 WK POST CARCINOGEN DOSE (STUDY DURATION: 25 WK), Strain/Sex: NMRI/FEMALE): skin: tumor
- outcome (Carcinogen: (+/-)-ANTI-7,12-DIMETHYLBENZ[A]ANTHRACENE-3,4-DIOL-1,2-EPOXIDE [86941-58-4], Doses [Carcinogen]: 0, 10, 50, 100 NMOL IN 0.2 ML ACETONE ONCE (STUDY DURATION: 22 WK), Doses [Carcinogen]: 0, 10, 50, 100 NMOL IN 0.2 ML ACETONE ONCE (STUDY DURATION: 22 WK), Doses [Promoter]: 3.24 NMOL IN 0.2 ML ACETONE 2X/WK FOR 20 WK BEGINNING 2 WK POST CARCINOGEN DOSE(STUDY DURATION: 22 WK), Strain/Sex: SENCAR/FEMALE): skin: tumor
- outcome (Carcinogen: (+/-)-SYN-7,12-DIMETHYLBENZ[A]ANTHRACENE-3,4-DIOL-1,2-EPOXIDE [86941-59-5], Doses [Carcinogen]: 0, 10, 50, 100 NMOL IN 0.2 ML ACETONE ONCE (STUDY DURATION: 22 WK), Doses [Carcinogen]: 0, 10, 50, 100 NMOL IN 0.2 ML ACETONE ONCE (STUDY DURATION: 22 WK), Doses [Promoter]: 3.24 NMOL IN 0.2 ML ACETONE 2X/WK FOR 20 WK BEGINNING 2 WK POST CARCINOGEN DOSE(STUDY DURATION: 22 WK), Strain/Sex: SENCAR/FEMALE): skin: tumor
- outcome (Carcinogen: (-)-(11R,12R)-DIBENZO[A,L]PYRENE DIHYDRODIOL, 189880-63-5, Carcinogen: (-)-(11R,12R)-DIBENZO[A,L]PYRENE DIHYDRODIOL, 189880-63-5, Doses [Carcinogen]: 10, 20, 40 NMOL IN 100 µL ACETONE ONCE, Doses [Carcinogen]: 10, 20, 40 NMOL IN 100 µL ACETONE ONCE, Doses [Promoter]: 10 NMOL IN 100 µL ACETONE 2/WK FOR 24 WK BEGINNING 1 WK POST CARCINOGEN DOSE (STUDY DURATION: 25 WK), Strain/Sex: NMRI/FEMALE): skin: tumor
- outcome (Carcinogen: (I)-11,12-DIBENZO[A,L]PYRENE-DIHYDRODIOL, 153857-27-3, Carcinogen: (I)-11,12-DIBENZO[A,L]PYRENE-DIHYDRODIOL, 153857-27-3, Doses [Carcinogen]: 40 NMOL IN 100 µL ACETONE ONCE, Doses [Promoter]: 10 NMOL IN 100 µL ACETONE 2/WK FOR 30 WK BEGINNING 1 WK POST CARCINOGEN DOSE (STUDY DURATION: 31 WK), Strain/Sex: NMRI/FEMALE): skin tumor
